{"source": "the RNAGym collection of RNA variant scans (doi:10.7554/elife.90254)", "parents": {"B1": {"name": "LINE1-mini (parent)", "chain": "GGCAGAGCUCAACACAGCGUGGCAAAGUGGCUGUGGCUAGACUGCC"}}, "note": "The source gives no read counts; variants with many changes may rest on few reads."}
{"variants_of": "B1", "assay": "self-cleavage, relative activity (ratio to wild type); higher = more cleavage; in vitro, sequencing; the parent is a self-cleaving ribozyme"}
{"variant": "GGUAGAGCUCAACACAGCGUGGCGAAGUGGCUGUGGCGAGACUGCC", "note": "[C3U A24G U38G]", "self-cleavage": 0.02}
{"variant": "GGUAGAGCUCAACACAGCGUGGCUCAGUGGCUGUGGCUAGACUGCC", "note": "[C3U A24U A25C]", "self-cleavage": 0.26}
{"variant": "GGUAGAGCUCAACACAGCGUGGCAAUGUGGCUGUCGCUAGACUGAC", "note": "[C3U A26U G35C C45A]", "self-cleavage": 0.04}
{"variant": "GGUAGAGAUAAACACAGCGUGGCAAAUUGUCUGUGGCUAGACUGCC", "note": "[C3U C8A C10A G27U G30U]", "self-cleavage": 0.03}
{"variant": "GGUAGAGAUGAACUCAGCGUGGCAAAGUGGCUGCGGCUAGACUGCU", "note": "[C3U C8A C10G A14U U34C C46U]", "self-cleavage": 0.04}
{"variant": "GGUAGAGAUCAACACAGCGUGGGGAAGUGGCUGUGGCUAGACUACC", "note": "[C3U C8A C23G A24G G44A]", "self-cleavage": 0.04}
{"variant": "GGUAGAGAUCAACACAGCGUGGUCAAGUGGCUGUGGCUAGACUGCC", "note": "[C3U C8A C23U A24C]", "self-cleavage": 0.37}
{"variant": "GGUAGAGAUCAACACAGCGUGGCAAAGUGGCUGUGGCUAGAGUGCC", "note": "[C3U C8A C42G]", "self-cleavage": 0.29}
{"variant": "GGUAGAGAUCAACACAGCAUGGCAAAGUGGCUGUGGCUAGACUGCC", "note": "[C3U C8A G19A]", "self-cleavage": 0.37}
{"variant": "GGUAGAGAUCAACACAGCUUGGCAAAGUGGCUGUGGCUAGACUGCC", "note": "[C3U C8A G19U]", "self-cleavage": 0.05}
{"variant": "GGUAGAGAUCAACACAGCGUGACUAAGUGGCUGUCGCUAGACUGCC", "note": "[C3U C8A G22A A24U G35C]", "self-cleavage": 0.06}
{"variant": "GGUAGAGAUCAACACAGCGUGUCAGAGUGGCUAUGGCUAGUCUGCC", "note": "[C3U C8A G22U A25G G33A A41U]", "self-cleavage": 0.48}
{"variant": "GGUAGAGAUCAACACAGCGUGGCAAAGUGGCUAUGGCUAGACUGCC", "note": "[C3U C8A G33A]", "self-cleavage": 0.57}
{"variant": "GGUAGAGAUCAACACAGCGUGGCAAAGUGGCUGUGACUAGACUGCC", "note": "[C3U C8A G36A]", "self-cleavage": 0.65}
{"variant": "GGUAGAGGUCAACCCAGCAGGGCAAAGUGGCUUUGGCUAGUAUGCC", "note": "[C3U C8G A14C G19A U20G G33U A41U C42A]", "self-cleavage": 0.02}
{"variant": "GGUAGAGGUCAACACAGCGUGGCACAGUGGCUGUGGCUACACGGCC", "note": "[C3U C8G A25C G40C U43G]", "self-cleavage": 0.46}
{"variant": "GGUAGAGGUCAACACAGCGUGGCAUAGUGGCUGUGGCUCGACUGCA", "note": "[C3U C8G A25U A39C C46A]", "self-cleavage": 0.04}
{"variant": "GGUAGAGGUCAACAAGGCGUGGCAAAGUGGCUGUGGCUAGACUGCC", "note": "[C3U C8G C15A A16G]", "self-cleavage": 0.23}
{"variant": "GGUAGAGGUCAACAAAGAGUGGGAAAGUGGCUGUGGCUAGACUGCC", "note": "[C3U C8G C15A C18A C23G]", "self-cleavage": 0.06}
{"variant": "GGUAGAGGUCAACACAGCGUGGUAAAGUGGCUGCGACUAGACUGCC", "note": "[C3U C8G C23U U34C G36A]", "self-cleavage": 0.03}
{"variant": "GGUAGAGGUCAACACAGCUUGGCAAAGGGGCUGUGGCUAGACUGCC", "note": "[C3U C8G G19U U28G]", "self-cleavage": 0.04}
{"variant": "GGUAGAGGUCAACACAGCGUGGCAAAAUUGCUGUGGCUAGACCGCC", "note": "[C3U C8G G27A G29U U43C]", "self-cleavage": 0.02}
{"variant": "GGUAGAGGCCAACACAGCGUGGUAAAGUGGCUGUGGCAAGACUGCC", "note": "[C3U C8G U9C C23U U38A]", "self-cleavage": 0.01}
{"variant": "GGUAGAGGUCAACACAGCGUGGCAAAGUGGCUGUGGCAAGACUGCC", "note": "[C3U C8G U38A]", "self-cleavage": 0.25}
{"variant": "GGUAGAGUUCAUCACAGCGUGGCACAGUGGCUGUGGAUAGACUGCC", "note": "[C3U C8U A12U A25C C37A]", "self-cleavage": 0.14}
{"variant": "GGUAGAGUUCAACACAGCGUGGCGAAGUGGCUGUGUCUAGCCGGCC", "note": "[C3U C8U A24G G36U A41C U43G]", "self-cleavage": 0.84}
{"variant": "GGUAGAGUUCAACACACCGUGGCAAAGUGGCUGAGGCUAGACUGCC", "note": "[C3U C8U G17C U34A]", "self-cleavage": 0.21}
{"variant": "GGUAGAGUUCAACACAGCGUAGCAUAGUGGCUAUGGCUAGACUGCC", "note": "[C3U C8U G21A A25U G33A]", "self-cleavage": 0.29}
{"variant": "GGUAGAGUUCAACACAGCGUGCCAAAUUGGCUGUGGCUAGACUGCC", "note": "[C3U C8U G22C G27U]", "self-cleavage": 0.08}
{"variant": "GGUAGAGUUCAACACAGCGUGGCAAAGUGGCUGUGGCUACACUGCC", "note": "[C3U C8U G40C]", "self-cleavage": 0.07}
{"variant": "GGUAGAGUUCAACACAGCGUGGCAAAGUGGCUGUGGCUAUACUGCC", "note": "[C3U C8U G40U]", "self-cleavage": 0.25}
{"variant": "GGUAGAGUCCAACACAGCGUGGCAAAGUGGCGGGGGAGAGACUGCC", "note": "[C3U C8U U9C U32G U34G C37A U38G]", "self-cleavage": 0.02}
{"variant": "GGUAGAGCUACACACAGCGUGGCAAAGUAGCGGUGGCUAGACUGCC", "note": "[C3U C10A A11C G29A U32G]", "self-cleavage": 0.01}
{"variant": "GGUAGAGCUAAGCACAGCGUGGCAAAGUGGCUGUGGCUAGACUGCC", "note": "[C3U C10A A12G]", "self-cleavage": 0.03}
{"variant": "GGUAGAGCUAAUCACAGCGUGGUAAAUUGGCUGUGGCUAGACUGCC", "note": "[C3U C10A A12U C23U G27U]", "self-cleavage": 0.02}
{"variant": "GGUAGAGCUAAACACAGCGUGGCACAGUGGCUGUGGCUAGACUGCC", "note": "[C3U C10A A25C]", "self-cleavage": 0.08}
{"variant": "GGUAGAGCUAAACACAGCGUGGCAAUGUGGCUUUGGCUAGACUGCC", "note": "[C3U C10A A26U G33U]", "self-cleavage": 0.04}
{"variant": "GGUAGAGCUAAACACAGCGUGGAAAAGUGGCUGUGGCUAGACUGCC", "note": "[C3U C10A C23A]", "self-cleavage": 0.18}
{"variant": "GGUAGAGCUAAACACAGCGUAGCAAAGUGGCUGUGGUUAGACUGCC", "note": "[C3U C10A G21A C37U]", "self-cleavage": 0.01}
{"variant": "GGUAGAGCUAAACACAGCGUGGCAAACUGGCUGUGUCUAGACUGCC", "note": "[C3U C10A G27C G36U]", "self-cleavage": 0.02}
{"variant": "GGUAGAGCUAAACACAGCGUGGCAAAGUGGCAGUGGCUUUACUGCC", "note": "[C3U C10A U32A A39U G40U]", "self-cleavage": 0.01}
{"variant": "GGUAGAGCUGAACACAGCGUGGCAAAGUGGCUGUGGCUAGACUUCC", "note": "[C3U C10G G44U]", "self-cleavage": 0.01}
{"variant": "GGUAGAGCUUAACGCAGCGUGGCAAAGUGGCUGUGGCUAGACUGCC", "note": "[C3U C10U A14G]", "self-cleavage": 0.04}
{"variant": "GGUAGAGCUUAACACGGCGUGGCAAAGUGGCUGUGGCUAGACUGCC", "note": "[C3U C10U A16G]", "self-cleavage": 0.08}
{"variant": "GGUAGAGCUUAACACAGUGUGGCCAAGUGGCUGUGGCUAGACUGCC", "note": "[C3U C10U C18U A24C]", "self-cleavage": 0.1}
{"variant": "GGUAGAGCUUAACACAACGUUGCAAAGUGGCUGUGGCUAUACAGCC", "note": "[C3U C10U G17A G21U G40U U43A]", "self-cleavage": 0.02}
{"variant": "GGUAGAGCUUAACACAGCGUUGCAAAGUGGGUGUGGCUAGACUGCC", "note": "[C3U C10U G21U C31G]", "self-cleavage": 0.02}
{"variant": "GGUAGAGCUUAACACAGCGUGGCAAAUUGGAUGUGGCUAGACUGCC", "note": "[C3U C10U G27U C31A]", "self-cleavage": 0.16}
{"variant": "GGUAGAGCUUAACACAGCGUGGCAAAGUUGCUGUGGCUAGACUGCC", "note": "[C3U C10U G29U]", "self-cleavage": 0.2}
{"variant": "GGUAGAGCUCAAAACAGCGUAGCAAAGUGUCUGUGGCUAGACUGCC", "note": "[C3U C13A G21A G30U]", "self-cleavage": 0.22}
{"variant": "GGUAGAGCUCAAAACAGCGUGACAAAGUGGCUGAGGCUAGACUGGC", "note": "[C3U C13A G22A U34A C45G]", "self-cleavage": 0.42}
{"variant": "GGUAGAGCUCAAAACAGCGUGGCAAAUUGACUGUGGCUAGACUGCC", "note": "[C3U C13A G27U G30A]", "self-cleavage": 0.04}
{"variant": "GGUAGAGCUCAAAACAGCGUGGCAAAGUGGCUGUUGCUAUCCUGCC", "note": "[C3U C13A G35U G40U A41C]", "self-cleavage": 0.05}
{"variant": "GGUAGAGCUCAAGACUGCGGGGCAAAGUGGCUUUGGCUAGACUGCC", "note": "[C3U C13G A16U U20G G33U]", "self-cleavage": 0.05}
{"variant": "GGUAGAGCUCAAGAAAGCGUAGCAAAGUGGCUGUGGCUAGACUGCC", "note": "[C3U C13G C15A G21A]", "self-cleavage": 0.21}
{"variant": "GGUAGAGCUCAAGACAGCGUGGCAAAGUGGAUGUGGCUAGAUUGCU", "note": "[C3U C13G C31A C42U C46U]", "self-cleavage": 0.13}
